Measurements taken from PubChem BioAssay AID504333 (National Center for Advancing Translational Sciences (NCATS), 2011).
The whole screen tested about 360,000 compounds, of which about 16,000 (4.4%) were called active. The inconclusive results got no clear call from the source; some entries with a clear call stand among them for comparison. Calls follow the shape of the dose curve; as a rule, active = well fitted inhibition curve with a large enough effect; inconclusive = small, poorly fitted or top-dose-only effect; inactive = no such curve, though single readings can be large or run the other way. Where the call is inconclusive, the potency comes from a doubtful curve fit.

Molecular target: Bromodomain adjacent to zinc finger domain protein 2B (Homo sapiens) (UniProt Q9UIF8)
Assay: qHTS Assay for Inhibitors of BAZ2B; also: nearly all actives have a fitted effect of over 60% in size
Details: AlphaScreen BAZ2B-H3K14Ac peptide displacement; series mostly up to 114 µM
Procedure, shortened: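 Protein-peptide AlphaScreen: BAZ2B 50 nM, b-H3K14Ac 50 nM, 1x PBS pH 7.4 + 0.01% Tween-20. Preincubation 30 min RT; cpd 30 min RT (top 110 uM); beads 20 min RT, light-protected.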
Potency is read from the fitted curve at half-maximal effect; tags tell the direction and shape of the fitted curve.

Chain of UniProt Q9UIF8 (Q9UIF8 whole entry, looked up, the tested form may be a part): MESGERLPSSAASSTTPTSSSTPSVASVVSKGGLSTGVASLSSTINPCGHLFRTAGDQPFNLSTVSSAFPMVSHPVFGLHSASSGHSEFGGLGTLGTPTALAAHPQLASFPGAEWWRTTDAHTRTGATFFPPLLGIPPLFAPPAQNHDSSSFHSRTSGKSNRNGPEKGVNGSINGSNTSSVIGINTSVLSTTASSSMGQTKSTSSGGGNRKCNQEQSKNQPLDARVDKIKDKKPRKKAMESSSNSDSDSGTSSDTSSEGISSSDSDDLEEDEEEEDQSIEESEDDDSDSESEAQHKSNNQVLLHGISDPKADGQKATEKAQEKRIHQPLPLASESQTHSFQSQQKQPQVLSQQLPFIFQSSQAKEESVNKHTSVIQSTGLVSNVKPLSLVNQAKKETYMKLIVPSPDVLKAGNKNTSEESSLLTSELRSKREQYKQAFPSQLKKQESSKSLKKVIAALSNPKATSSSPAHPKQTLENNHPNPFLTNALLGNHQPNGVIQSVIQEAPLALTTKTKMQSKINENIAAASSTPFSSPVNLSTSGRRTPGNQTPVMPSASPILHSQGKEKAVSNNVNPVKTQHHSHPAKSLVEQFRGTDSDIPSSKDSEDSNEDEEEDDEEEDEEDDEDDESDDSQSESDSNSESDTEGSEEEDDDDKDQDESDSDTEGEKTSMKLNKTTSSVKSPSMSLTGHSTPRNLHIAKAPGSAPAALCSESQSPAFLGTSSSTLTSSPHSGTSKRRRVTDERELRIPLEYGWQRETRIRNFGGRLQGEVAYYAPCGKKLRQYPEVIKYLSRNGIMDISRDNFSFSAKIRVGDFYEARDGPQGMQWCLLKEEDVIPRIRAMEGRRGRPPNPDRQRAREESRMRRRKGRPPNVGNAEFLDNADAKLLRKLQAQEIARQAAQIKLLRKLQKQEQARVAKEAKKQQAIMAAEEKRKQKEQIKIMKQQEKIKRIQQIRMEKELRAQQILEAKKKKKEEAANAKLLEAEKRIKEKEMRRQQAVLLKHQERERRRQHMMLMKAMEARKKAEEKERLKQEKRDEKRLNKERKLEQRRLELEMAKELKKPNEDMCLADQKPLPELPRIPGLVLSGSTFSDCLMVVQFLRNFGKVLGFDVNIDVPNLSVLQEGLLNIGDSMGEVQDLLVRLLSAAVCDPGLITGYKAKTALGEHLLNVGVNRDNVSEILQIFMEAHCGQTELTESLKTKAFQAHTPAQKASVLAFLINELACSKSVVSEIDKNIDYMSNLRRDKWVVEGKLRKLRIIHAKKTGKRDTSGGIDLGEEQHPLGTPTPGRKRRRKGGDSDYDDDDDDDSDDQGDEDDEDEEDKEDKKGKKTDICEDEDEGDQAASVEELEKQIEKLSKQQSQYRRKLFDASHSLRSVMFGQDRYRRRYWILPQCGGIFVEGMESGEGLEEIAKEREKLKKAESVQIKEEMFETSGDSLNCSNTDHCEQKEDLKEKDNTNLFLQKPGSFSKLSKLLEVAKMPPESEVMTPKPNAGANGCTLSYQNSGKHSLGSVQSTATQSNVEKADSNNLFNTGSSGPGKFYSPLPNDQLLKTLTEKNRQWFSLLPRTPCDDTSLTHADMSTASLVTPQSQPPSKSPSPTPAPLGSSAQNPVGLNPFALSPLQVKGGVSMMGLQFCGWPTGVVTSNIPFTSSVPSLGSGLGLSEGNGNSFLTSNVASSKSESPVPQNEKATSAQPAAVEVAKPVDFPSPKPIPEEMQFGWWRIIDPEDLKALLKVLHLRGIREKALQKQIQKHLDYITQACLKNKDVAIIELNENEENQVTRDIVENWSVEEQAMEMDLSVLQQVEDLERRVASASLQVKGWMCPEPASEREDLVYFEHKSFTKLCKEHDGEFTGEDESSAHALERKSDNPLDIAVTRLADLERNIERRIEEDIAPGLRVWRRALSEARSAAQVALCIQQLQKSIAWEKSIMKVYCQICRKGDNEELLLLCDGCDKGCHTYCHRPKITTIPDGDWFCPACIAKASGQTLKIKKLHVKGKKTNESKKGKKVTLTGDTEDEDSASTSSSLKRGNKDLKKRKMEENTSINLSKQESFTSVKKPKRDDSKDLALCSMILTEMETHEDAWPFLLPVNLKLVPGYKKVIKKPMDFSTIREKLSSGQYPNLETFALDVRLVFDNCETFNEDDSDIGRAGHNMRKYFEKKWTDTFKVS

Structure (SMILES)	Potency
O=C(CSc1nnc(-c2ccc(F)cc2)c2ccccc12)Nc1c(F)cccc1F	inactive
c1ccc(N2CCN(c3ncnc4sc5c(c34)CCC5)CC2)cc1	inconclusive: 39.8 µM [inhibitor, full curve, poor fit]
O=C(NC1CC1)c1ccc(NS(=O)(=O)c2ccc(F)cc2)cc1	inactive
CC(C)CCC(CCN1CCOCC1)c1ccc2c(c1)OCO2 (configuration not stated)	inconclusive: 50.1 µM [inhibitor, partial curve]
O=C(c1ccc(NS(=O)(=O)c2ccc(Cl)cc2)cc1)N1CCOCC1	inactive
COc1ccc(C2CC(c3ccc4ccccc4c3)=NN2C(=O)COC(=O)C2CCC(=O)N2)cc1 (configuration not stated)	active: 35.5 µM
CC(Sc1nnc(C(C)N(C)C)n1-c1ccc(Cl)cc1)C(=O)Nc1ccc2c(c1)OCO2 (configuration not stated)	inconclusive: 89.1 µM [inhibitor, single point]
COc1c(O)ccc(/C=C(\C#N)c2nc3ccccc3[nH]2)c1[N+](=O)[O-]	active: 39.8 µM
CN1CCN(CCCC(=O)c2ccc(F)cc2)CC1	inconclusive: 89.1 µM [inhibitor, single point]
O=C(/C=C/c1ccccc1)NC(=S)Nc1ccccc1	inactive
Nc1ccc(C(=O)N/N=C/c2cn(Cc3cccc(F)c3)c3ccccc23)cc1	inconclusive: 39.8 µM [inhibitor, partial curve]
CCOC(=O)c1nc(Nc2ccc(C(=O)OCC(C)C)cc2)c2ccccc2n1	inactive
CCc1ccc2c(c1)C(=O)c1ccccc1C2=O	inconclusive: 31.6 µM [inhibitor, full curve]
COCCNCC(=O)Nc1nc(C)cs1	active: 31.6 µM
Cc1cc(C(=O)N(C)CC(=O)Nc2ccc(Cl)c(C(F)(F)F)c2)no1	inactive
COc1ccc(CNc2cccc3[nH]c(C(F)(F)F)nc23)cc1	inconclusive: 50.1 µM [inhibitor, partial curve]
O=C(NCCc1ccc(Cl)cc1)c1cc(-c2ccncc2)nc2ccccc12	inactive
COc1ccccc1N1CCN(C(=O)C2CCN(C(=O)c3ccccc3Cl)CC2)CC1	inactive
CN(CC(=O)Nc1ccccc1Cl)C(=O)c1cccc(S(=O)(=O)N2CCN(c3ccc(F)cc3)CC2)c1	inconclusive: 25.1 µM [inhibitor, full curve]
COc1cccc(CNC(=O)COC(=O)c2cccc(S(=O)(=O)N3CCCC3)c2)c1	inactive
COC(=O)CCC(=O)OC1(C)C(=O)C=C2C=C(C3CC3)N(Cc3ccc4c(c3)OCO4)C=C2C1=O (configuration not stated)	inconclusive: 79.4 µM [inhibitor, single point]
CCOC(=O)c1cc(-c2ccccc2)n(CC(=O)Nc2ccc(OC)cc2OC)c1C	inactive
Cc1cc(C(=O)CCl)c(C)n1-c1cccc(S(=O)(=O)N2CCOCC2)c1	inconclusive: 56.2 µM [inhibitor, partial curve]
Cc1ccc2[nH]c3c(c2c1)CN(C(=O)CN1CCN(c2cccc(C)c2C)CC1)CC3	active: 35.5 µM

Structure (SMILES)	Potency
Cc1nc2ccn(Cc3cccs3)c(=O)c2cc1C(=O)NCc1ccccc1	inactive
COc1ccc(C2=NN(C(=O)c3ccccc3)C(c3cccc([N+](=O)[O-])c3)C2)cc1 (configuration not stated)	inconclusive: 22.4 µM [inhibitor, full curve]
C[C@@H]1NC(=O)c2cc([N+](=O)[O-])cc(I)c2NCCCC[C@@H](C(N)=O)NC(=O)[C@H](CC(N)=O)NC1=O	inconclusive: 79.4 µM [inhibitor, single point]
Cc1ccc(Nc2sc(C(=O)c3ccccc3)c(N)c2C(=O)NC(C)C)cc1	inconclusive: 50.1 µM [inhibitor, partial curve, poor fit]
O=C(Nc1ccccc1)c1ccc(NC2CCCCC2)c(S(=O)(=O)N2CCOCC2)c1	inconclusive: 3.55 µM [inhibitor, full curve]
Cc1ccc(S(=O)(=O)NC(C)C(=O)N2CCOCCOCCOCCOCC2)cc1 (configuration not stated)	inactive
COc1ccc(N(CC(=O)Nc2ccc3c(c2)OCO3)S(=O)(=O)c2ccccc2)cc1	inconclusive: 56.2 µM [inhibitor, partial curve]
CC1=NN(c2cccc([N+](=O)[O-])c2)C(=O)C1	inconclusive: 39.8 µM [inhibitor, partial curve, poor fit]
CCCCN1C(=O)c2ccc(C(=O)Nc3cccc(C)c3C)cc2C1=O	inconclusive: 7.94 µM [inhibitor, single point]
Cc1occc1C(=O)N/N=C/c1ccc2c(c1)OCO2	inactive
C=CCOc1ccc(/C=C/C(=O)N2CCCN(S(=O)(=O)c3c(C)noc3C)CC2)cc1	inactive
Cc1ccc(C)c(CN2C(=O)COc3ccccc32)c1	inconclusive: 89.1 µM [inhibitor, single point]
COc1ccc(N2C(=O)CC(Nc3ccc(F)cc3)C2=O)c([N+](=O)[O-])c1 (configuration not stated)	inconclusive: 50.1 µM [inhibitor, partial curve]
COc1ccccc1CNCc1cc(Br)ccc1OC	active: 56.2 µM
CCOc1ccc(NC(=S)N(CCc2c(C)[nH]c3ccccc23)Cc2ccco2)cc1	inconclusive: 44.7 µM [inhibitor, partial curve]
O=C(O)C1CCCN(S(=O)(=O)c2ccc3c(c2)OCCO3)C1 (configuration not stated)	inactive
CCOC(=O)c1[nH]c(C)c(/C(O)=C2\C(=O)C(=O)N(CCN(C)C)C2c2cccc(OC)c2OC)c1C (configuration not stated)	inconclusive: 79.4 µM [inhibitor, single point]
O=C(c1cn(CCOc2ccccc2F)c2ccccc12)C1CCCCC1	inactive
Cc1c(O)c(=O)ccn1Cc1ccccc1	inconclusive: 89.1 µM [inhibitor, single point]
Cc1c(C(=O)N2CCOCC2)c(S(=O)(=O)Nc2ccccc2F)c(C)n1C	inactive
O=[N+]([O-])c1ccc(Nc2nc(NC3CCCCC3)nc(N3CCCC3)n2)cc1	inconclusive: 8.91 µM [inhibitor, full curve, poor fit]
CN(C)c1oc(-c2ccc(OCc3ccccc3)cc2)nc1C#N	inconclusive: 8.91 µM [inhibitor, full curve]
S=c1[nH]nc(-c2ccncc2)n1/N=C/c1cn(-c2ccccc2)nc1-c1ccc(Cl)cc1	inactive
Cc1ccc(-c2cn3c(n2)CCCC3)cc1	inconclusive: 56.2 µM [inhibitor, partial curve]

Structure (SMILES)	Potency
CCOc1ccc(C(=O)c2cn(Cc3ccccc3OC)c3cc4c(cc3c2=O)OCCO4)cc1	inconclusive: 22.4 µM [inhibitor, full curve, poor fit]
CCc1cccc(NC(=O)CN(C)S(=O)(=O)c2cccs2)c1	inconclusive: 89.1 µM [inhibitor, single point]
CCN(N=Nc1cccc([N+](=O)[O-])c1)c1cccc([N+](=O)[O-])c1	inconclusive: 10 µM [inhibitor, full curve]
CCCCC(=O)NC(=S)NNC(=O)c1ccc(Cl)cc1Cl	inactive
O=C(CCCC(=O)N/N=C/c1ccccc1C(=O)O)N/N=C/c1ccccc1C(=O)O	inconclusive: 89.1 µM [inhibitor, single point]
CCn1nc(C)c(CN2CCC(C(=O)Nc3cccc(-c4cccc(F)c4)c3)CC2)c1C	inactive
COc1ccccc1N1CCN(C(=O)c2sc3nc4n(c(=O)c3c2C)CCC4)CC1	inconclusive: 89.1 µM [inhibitor, single point]
Oc1ccccc1-c1n[nH]c(=S)n1Cc1ccccc1	inconclusive: 79.4 µM [inhibitor, partial curve]
Cc1ccc2[nH]cc(CCNC(=O)c3cccs3)c2c1	inconclusive: 70.8 µM [inhibitor, single point]
CCOC(=O)c1c(C)[nH]c(C)c1C(=O)CSc1nc2ccccc2c(=O)n1-c1ccccc1C	inconclusive: 44.7 µM [inhibitor, partial curve]
CN(C)c1ccc(/C=N/NC(=O)c2cccc(N3CCCC3=O)c2)cc1	inconclusive: 89.1 µM [inhibitor, single point]
CCCCCn1cc2c(c1-c1ccc(Cl)cc1)c(=O)n(C)c(=O)n2C	inactive
Cc1occc1-c1nnc(SCC(=O)N(C)C)o1	inconclusive: 100 µM [inhibitor, single point]
COCCCNC(=O)CCCN1C(=O)c2cccnc2Sc2ccccc21	inconclusive: 3.55 µM [inhibitor, single point]
COc1ccc(NC2CCCN(Cc3cccc4cnccc34)C2)cc1OC (configuration not stated)	inconclusive: 89.1 µM [inhibitor, single point]
CCNC(=S)/N=C(/Nc1ccccc1)Nc1nc(C)cc(C)n1	inconclusive: 79.4 µM [inhibitor, single point]
CCOC(=O)C1CCCN(S(=O)(=O)c2ccc3[nH]c(=O)oc3c2)C1 (configuration not stated)	inactive
Cc1cc(NC(=O)CSCC(=O)Nc2cccc(S(=O)(=O)N3CCCCCC3)c2)no1	inconclusive: 89.1 µM [inhibitor, single point]
O=C(CCC1CCCC1)N1CCC(N2CCCCCC2)CC1	active: 56.2 µM
O=[N+]([O-])c1cccc(N/N=C/c2ccc(N3CCOCC3)cc2)c1	active: 17.8 µM
CCOc1ccc(CCNC(=O)CN2C(=O)NC3(CCCCCC3)C2=O)cc1OCC	inactive
CN(C)C(=S)Nc1cccc(-c2n[nH]c(=S)o2)c1	inactive
O=[N+]([O-])c1cc(/C=N\Nc2nc(-c3ccccc3)cs2)ccc1O	active: 12.6 µM
CCn1c(=N)c(C(=O)NC2CCCC2)cc2c(=O)n3ccccc3nc21	inactive
